From article PMC12136788
This is one part of the list.

T1: UNK ZnF1-3 (human, UniProt Q9C0B0 31-174)
T1 sequence: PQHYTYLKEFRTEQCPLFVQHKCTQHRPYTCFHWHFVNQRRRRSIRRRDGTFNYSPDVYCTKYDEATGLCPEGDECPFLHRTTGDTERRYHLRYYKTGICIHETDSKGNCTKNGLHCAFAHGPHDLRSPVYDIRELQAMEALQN

B1: chr17:45761549:45761550:+_ENSG00000108424_ENST00000290158|hu_mus|FALSE|FALSE (ssRNA)
RNA: GGGAGUUCUACAGUCCGACGAUCGCUCAGGCAGGGAGGGGAUGAAAGGAGCACGGGAGAAACCUAAGCCAAUACCUUUGACUACAAUGGAAAUGGAAAUGGGAAUGAGGGUCUUGUGUUUCUUCCACACUACCAGGAAGCAAUCAACAGAGGAUUGAGCAUCA
B2: chr4:116827845:116827846:-_ENSMUSG00000047675_ENSMUST00000140226|mus_mus|FALSE|FALSE (ssRNA)
RNA: GGGAGUUCUACAGUCCGACGAUCACAAGUCCUUGCAUUGGCAAGUGGUGUACAGGUGGCCAAGACGGCCAUAACCACGCCUAAGGAUACGUUUUCAUCACCCUAGUUACCUCCAGAAAAAGCCAGACCCCCCCUAACACAGGACAACAGAGGAUUGAGCAUCA
B3: chr2:232320318:232320319:-_ENSG00000115053_ENST00000322723|hu_hu|hu_hu_hu_mus_True|38_108 (ssRNA)
RNA: GGGAGUUCUACAGUCCGACGAUCACUGUUGAAGUCUACAAAACCAAACCCUUUGGAAGAACCAGUUUCCCGAUCAGUGACUAUUCUUGCACGAACAGAGCCGUCAAAUGAUUCUUUUAAGGUCUCUUCAGUGGUAUCCUCAGACAACAGAGGAUUGAGCAUCA
B4: chr16:94690093:94690094:+_ENSMUSG00000040785_ENSMUST00000117648|mus_hu|mus_mus_mus_hu_True|18_108 (ssRNA)
RNA: GGGAGUUCUACAGUCCGACGAUCGGGGACUCCUGUGGGACACACAGCCUCGAUUCCAGGGGGAAAAAGUCUUAGUCGAUACUAAUUAAAAAGUGUUAAUGAUUUUUGAAAAUCAGAUGUAGAUUAAAAAAGAUGAAAAGCAAACAACAGAGGAUUGAGCAUCA
B5: chr17:74891714:74891715:+_ENSMUSG00000024072_ENSMUST00000024873|mus_mus|motif|central (ssRNA)
RNA: GGGAGUUCUACAGUCCGACGAUCAGAUUCUUUGAUGAAAUCUCCGCUUACACCGAGGUUUAAUUUGACAUCUGGAGCUGCGGUAGAACCGCUGAGAUCUUCCGCGUCCGCCGAAGACACAAAGGUGAAGUCCCCGUUGGCAGGCAACAGAGGAUUGAGCAUCA
B6: chr17:13104604:13104605:-_ENSMUSG00000057388_ENSMUST00000079121|mus_hu|FALSE|FALSE (ssRNA)
RNA: GGGAGUUCUACAGUCCGACGAUCAUAGAUUCUCUGAGGUUCCCGUAGAACCACACCACCUUCUGUCAUGGCACUUUGUAGUCGUUUCAUCGAGUCUGAGGCUGCCUCCCACGGGGUUGGUUGGUAGACCAUGAAGUUGAUUCCCAACAGAGGAUUGAGCAUCA
B7: 57883305_57883743_2155_CDS_ENSG00000047315_ENST00000314595|human|control|control (ssRNA)
RNA: GGGAGUUCUACAGUCCGACGAUCGUAUGUGUUUCUAGGGGACUGGUUAUGAUCAGGAAAGGGAAUAAUAGAUGCACAGACACCAAGGAUCAUUGAGGGAUGAAUCUCACAGUGUGUAUAUGUGGAACAAUAAGCUACUUCUUUCAACAGAGGAUUGAGCAUCA
B8: chr1:167409666:167409667:+_ENSMUSG00000026568_ENSMUST00000027853|mus_hu|FALSE|FALSE (ssRNA)
RNA: GGGAGUUCUACAGUCCGACGAUCUUCUUGGUUAUAUCUCCAAAUACGAAAAAGCUGAGAGGCUCCUGCUGCCCCCACAAAGAAAUUAACAGCAAACAGACUCCAAUUUUUUGGAAUAAUUACAAGUGAGUAUCUUGACCAAAUCAACAGAGGAUUGAGCAUCA
B9: chr7:65705844:65705845:+_ENSG00000169902_ENST00000304842|hu_mus|hu_hu_hu_mus_False|78_88 (ssRNA)
RNA: GGGAGUUCUACAGUCCGACGAUCAAACGGAUCUUUGUUACAUAAAUAAGGGGCUGGCUCCCCAUGCUUAACAAUGACCUCCAGAAGGAAGGCUUGCAUGGCAGAAUCUAGCACUUCAUCUGUGACACCCGCCUCAUCCAAGCGCAACAGAGGAUUGAGCAUCA
B10: chr2:119839360:119839361:+_ENSMUSG00000033902_ENSMUST00000066058|mus_mus|FALSE|FALSE (ssRNA)
RNA: GGGAGUUCUACAGUCCGACGAUCGCCAUCAGCACAGCCACAGAAGAUGUAUUCUUGGGUGACAGAGAUGCAGUGGGCCACAGUGGUCCUUAGCUCCACCCAUUUGUCCAGAAGCCUGCGAUCGCUGAACUCGCACAGCAGCCCCAACAGAGGAUUGAGCAUCA
B11: 73725471_73725591_98_5pUTR_ENSMUSG00000022105_ENSMUST00000022701|mouse|control|control (ssRNA)
RNA: GGGAGUUCUACAGUCCGACGAUCAGCAGCCGAGGGAGGCGCGCGGGGAGGCGGGCGGGCGCGCGCGCACGCCGGGCACGCCCCGUCCUCACCCGACUCCCGUUACAAAAAUAAUGGGAACGUCCCCCGAGGAAAACCGGACGCCAACAGAGGAUUGAGCAUCA
B12: chr14:89307221:89307222:+_ENSG00000165533_ENST00000346301|hu_mus|hu_hu_hu_mus_False|28_28 (ssRNA)
RNA: GGGAGUUCUACAGUCCGACGAUCUCCUGUUUGGUUAGUGCCAGGGAGCUUCAAAGAUGUGCCAGGGCGUGGGACCUGAGCAAUAGCAUUUUCAUCCAGGAUCAUUUCUGCAAUUCCUUCCUGGUCCACAUCAAUUUCAUCUAUCAACAGAGGAUUGAGCAUCA
B13: chr7:66532262:66532263:+_ENSMUSG00000025326_ENSMUST00000107537|mus_hu|motif|central (ssRNA)
RNA: GGGAGUUCUACAGUCCGACGAUCUCCUUGAACUAAGCUGUAGAGAACAGUGAUUCUUCGUUCACUGUACAUGCGAAUUCGGUUGUCAUAAUAUAAUCCCAAAUUCUUUGUGACAGCAUUCAAUAUAAAGGGACAUGUCAUAAACAACAGAGGAUUGAGCAUCA
B14: chr2:32526493:32526494:+_ENSG00000119820_ENST00000437765|hu_hu|motif|central (ssRNA)
RNA: GGGAGUUCUACAGUCCGACGAUCGAUCCAACCACCAAAAGUACAGGGGCUAUUACAAUGAGAGGAAGUAAUGAAUAUCCGGUAACUCCAAGGACUUGGCCAUAUGCAACUUCUCCACCAAGAACUCUGGCCAGUAAGAAAAUUCAACAGAGGAUUGAGCAUCA

What follows are binders tested against T1, UNK ZnF1-3 (assay: nsRBNS (natural sequence RNA bind-n-seq); RBNS binding buffer (assumed for nsRBNS): 25 mM Tris pH 7.5, 150 mM KCl, 3 mM MgCl2, 0.01% Triton X-100, 500 ug/ml BSA, 20 U/ml SUPERase-In, 4 C; UNK is unkempt and MSI1 is Musashi-1; names of the RNAs are library labels; protein concentration not given here; high values mean tight binding).
Work on B1 yielded a binding signal of 1.47 enrichment R. B2 was tested, and the binding signal was 0.979 enrichment R. In the case of B3, the binding signal is reported as 0.676 enrichment R. Work on B4 yielded a binding signal of 2.26 enrichment R. B5 gave a binding signal of 0.728 enrichment R. In the case of B6, the binding signal is reported as 0.75 enrichment R. B7 was tested, and the binding signal was 1.73 enrichment R. Binder B8 has a binding signal of 1.52 enrichment R. B9 gave a binding signal of 0.686 enrichment R. B10 gave a binding signal of 1.05 enrichment R. For B11, the binding signal was 0.958 enrichment R. Work on B12 yielded a binding signal of 0.875 enrichment R. In the case of B13, the binding signal is reported as 0.506 enrichment R. With B14 the binding signal was 1.73 enrichment R.
